Laboratory results as given in publication PMC4336329 (PLoS ONE, 2015).
In all, about 310,000 compounds went through this assay and about 14,000 (4.5%) showed an effect of 50% or more. The effect is printed as a negative number. The list shows a part of the results.

biological target: human ether-à-go-go-related gene (hERG) potassium channel (human, UniProt Q12809); assay: primary screen, population patch clamp on CHO cells stably expressing hERG
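Further: peak tail current of the secondary pulse compared with the same well before compound.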

Chain of human ether-à-go-go-related gene (hERG) potassium channel (Q12809 whole entry, looked up): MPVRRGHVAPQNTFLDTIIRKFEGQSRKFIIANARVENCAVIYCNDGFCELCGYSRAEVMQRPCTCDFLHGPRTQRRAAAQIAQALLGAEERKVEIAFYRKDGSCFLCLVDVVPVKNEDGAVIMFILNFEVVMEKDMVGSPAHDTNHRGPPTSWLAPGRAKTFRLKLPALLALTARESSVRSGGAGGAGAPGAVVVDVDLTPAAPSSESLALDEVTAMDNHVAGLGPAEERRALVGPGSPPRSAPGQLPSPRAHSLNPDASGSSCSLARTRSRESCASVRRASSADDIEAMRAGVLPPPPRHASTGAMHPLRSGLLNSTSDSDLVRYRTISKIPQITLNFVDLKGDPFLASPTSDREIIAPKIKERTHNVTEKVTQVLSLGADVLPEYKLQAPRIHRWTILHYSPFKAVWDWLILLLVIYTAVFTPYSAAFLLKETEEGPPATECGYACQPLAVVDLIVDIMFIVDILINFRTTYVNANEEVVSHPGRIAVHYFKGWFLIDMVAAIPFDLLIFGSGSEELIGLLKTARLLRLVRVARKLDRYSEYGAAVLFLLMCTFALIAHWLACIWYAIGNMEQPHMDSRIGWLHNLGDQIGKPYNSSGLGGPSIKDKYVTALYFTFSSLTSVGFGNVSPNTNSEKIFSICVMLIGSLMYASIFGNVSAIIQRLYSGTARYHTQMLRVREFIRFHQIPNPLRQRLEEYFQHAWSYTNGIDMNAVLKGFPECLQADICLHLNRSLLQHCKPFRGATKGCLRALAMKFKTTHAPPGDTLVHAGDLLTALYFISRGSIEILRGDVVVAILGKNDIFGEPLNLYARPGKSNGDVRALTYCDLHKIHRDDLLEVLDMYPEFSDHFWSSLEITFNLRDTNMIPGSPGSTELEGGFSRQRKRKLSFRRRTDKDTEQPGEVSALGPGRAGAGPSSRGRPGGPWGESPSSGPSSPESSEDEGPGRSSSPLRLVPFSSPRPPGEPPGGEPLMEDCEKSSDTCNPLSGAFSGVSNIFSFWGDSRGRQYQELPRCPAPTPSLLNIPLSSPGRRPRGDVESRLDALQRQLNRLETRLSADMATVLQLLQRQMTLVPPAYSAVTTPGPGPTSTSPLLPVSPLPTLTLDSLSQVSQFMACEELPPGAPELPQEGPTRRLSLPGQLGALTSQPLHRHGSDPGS

Row | Structure (SMILES) | hERG current change (%, negative = inhibition) at 10uM [%]
1 | Cc1ccc(NS(=O)(=O)c2ccc3c(c2)n(C)c(=O)n3C)cc1C | 14.2
2 | COc1ccc(CCNC(=O)C(C)Sc2ccccc2)cc1OC (stereo not shown) | 5.6
3 | O=C(NCCSc1c[nH]c2ccccc12)c1ccc2c(c1)OCO2 | -17
4 | O=C(COC(=O)CCNS(=O)(=O)c1ccccc1)Nc1ccc(OC(F)F)cc1 | -60.3
5 | Cc1c(C=O)c2ccccc2n1Cc1cccc(F)c1 | -1.84
6 | COc1ccc(NC(=O)CSc2nc(C)cc(C)n2)c([N+](=O)[O-])c1 | 11.9
7 | COc1ccc(N2CCN(Cc3nc(Cc4cccc(F)c4)no3)C(C)C2)cc1 (stereo not shown) | -16.4
8 | CN(Cc1ccco1)S(=O)(=O)c1ccc2c(c1)CCN2C(=O)CCC(=O)O | 19.7
9 | Cc1cccc(-c2nnc(NC(=O)c3ccco3)s2)c1 | 13.9
10 | S=C(Nc1ccc2c(c1)OCCO2)Nc1ccccc1Cl | 14.7
11 | CC(C)OC(=O)c1ccc(NC(=O)c2ccco2)cc1 | -17.1
12 | Cc1ccc(NC(=O)NC(=O)N(C(C)C)S(=O)(=O)c2ccc(C)cc2)cc1 | 6.99
13 | O=S(=O)(c1ccc(-c2n[nH]c(=S)o2)cc1)N1CCCCC1 | 22.4
14 | COc1ccc(CCNC(=O)C2CCN(Cc3nc(-c4ccccc4C)oc3C)CC2)cc1OC | -79.2
15 | COc1ccc(C(=O)Nc2c(N)nc(SCC(=O)Nc3ccc(C(C)=O)cc3)[nH]c2=O)cc1 | 20.1
16 | COc1cccc(C(=O)C2CCCN(Cc3cn(CC(N)=O)c4ccccc34)C2)c1 (stereo not shown) | -53
17 | CC(C)(C)OC(=O)NCCCC[C@H](NC(=O)c1nc[nH]c1C(=O)N1CCN(c2ccccc2)CC1)C(=O)OC(C)(C)C | -17.2
18 | COC(CNC(=O)C(=O)NCC1OCCN1C(=O)c1ccc(Cl)cc1)OC (stereo not shown) | 13.5
19 | Nc1cccc2c1nnn2C1OC(CO)C(O)C(O)C1O (stereo not shown) | 17.7
20 | O=C(N=C1SC2CS(=O)(=O)CC2N1c1ccc(F)c(Cl)c1)C1CCCO1 (stereo not shown) | 6.3
21 | COc1ccccc1-c1nnc(C2CCN(S(=O)(=O)c3cccc([N+](=O)[O-])c3)CC2)o1 | -57.6
22 | CC(C(=O)Nc1ccccc1Cl)c1ccc([N+](=O)[O-])cc1 (stereo not shown) | -25.3

Row | Structure (SMILES) | hERG current change (%, negative = inhibition) at 10uM [%]
23 | CC(=O)/C(=N/Nc1ccc(Br)cc1)N1CCCc2ccccc21 | 4.06
24 | S=C(Nc1ccccn1)Nc1ccccc1Cl | 11
25 | O=C(NCC(=O)N1CCCCCC1)c1ccc(Cl)cc1 | 11.8
26 | Cc1sc2nc(SCC(=O)NCc3ccco3)n(Cc3ccccc3)c(=O)c2c1C | -3.84
27 | O=C(NNC(=O)c1ccccc1)C(=O)N1CCCCC1 | -0.928
28 | Cc1sc2ncnc(Sc3ccccc3C(=O)O)c2c1C | -14.7
29 | Cc1nc(NC(=O)c2ccccc2)sc1-c1csc(NCc2ccccc2)n1 | -2.97
30 | COc1ccccc1C/C(N)=N/OC(=O)COc1ccc(C)cc1C | 17.4
31 | COc1ccc(S(=O)(=O)N2CCC(C(=O)NCC3CCCO3)CC2)cc1C (stereo not shown) | 9.95
32 | CCCNC(=O)Cn1nc(C)n2c(cc3cc(F)ccc32)c1=O | 17.6
33 | N#CCC(CNc1ncc(C(F)(F)F)cc1Cl)OC(=O)c1ccc(Cl)cc1Cl (stereo not shown) | 8.67
34 | O=c1[nH]cccc1-c1nc2ccccc2n1Cc1cccc(F)c1 | -12.1
35 | CC(CCc1ccccc1)NC(=O)C1CCN(S(=O)(=O)c2cnc[nH]2)CC1 (stereo not shown) | 5.89
36 | CCCC1Cc2nc(Cl)c(C#N)cc2CO1 (stereo not shown) | 15.6
37 | CCN(CC)CCn1c2c(c(SCC(=O)Nc3nc(C)cs3)nc1=O)CCCC2 | -70.1
38 | CC(=O)NC(CCS(C)(=O)=O)C(=O)Nc1ccc2c(c1)OCO2 (stereo not shown) | 7.45
39 | Cc1ccc(NC(=S)NCCc2ccc(Cl)cc2)c(C)c1 | 16.3
40 | CC(C)CCOCC1CC2(CC(C)(c3csc(N)n3)OC2=O)C(=O)O1 (stereo not shown) | 14.8
41 | COc1ccc(-c2nnc(SCc3cccc(C)c3)n2N)cc1 | 4.88
42 | COc1cccc(Oc2ccc(C(F)(F)F)cc2N)c1 | -1.73
43 | CC(=O)N1C(=O)N(C(C)=O)C2C1N(C(C)=O)C(=O)N2C(C)=O (stereo not shown) | 5.37
